Tested on: HeLa cell
Assay: Luminous intensity expressed in HeLa cell, star-worm mutant vs wild-type luciferase (Example 4)
Settings: 2 mM D-luciferin, 37° C., 90 minutes, normalised to sea pansy luciferase internal control, codon-optimized gene with Kozak sequence

B1: star-worm mutant luciferase: Star-worm luciferase in which cysteine at position 344 of SEQ ID NO: 1 is substituted by serine (protein, listed as Diplocladon sp.)
chain: MPNEIVLHGAKPRDPLDLGTAGSQLFRSLTQFSYLREALVDAHTEQVVSYADILENSCRLAICFEKYGLRQNSVIAVCSENSAIFFYPVIAALYMGIITATVNDNYTERELFDTLNISKPELVFCSKKAIKNLTQLKNHIDFIKKLVVLDSDEDIGEVESLANFMKRYSESVIDVRNFKPRDFDAKEQVALIMSSSGTTGLPKGVVLTHRNLSVRFVHCKDPLFGTRTVPSTSILSIVPFHHAFGMFTTLSYFIVGLRVILLKRFEEEFFLSTIEKYRIPTIVLAPPVMVFLAKSPLVDQYDVSSIREVATGGAPVGIEVAEAVAKRLKINGILQGYGLTETCSAVLITPHDHVKTGSTGKVAPYVQAKVVDLSTGKSLGPNKRGELCFKSEIIMKGYFNNIKATEEAIDKEGWLHSGDVGYYDEDGHFYVVDRLKELIKYKGYQVAPAELEWLLLQHPAIKDAGVTGVPDEAAGELPGACIVLEEGHSLTEQEVIEYVAERVSPTKRIRGGVVFVDDIPKGATGKLVRSELRRMLSQKKSKL
B1 was tested, and the “luminous intensity relative to that induced by the star-worm wild-type luciferase” value was 4.9 times.
